Assay results taken from PubChem BioAssay AID504832 (National Center for Advancing Translational Sciences (NCATS), 2011).
In all, about 310,000 compounds went through this assay and about 18,000 (5.8%) were called active. Inconclusive means that the source gave no clear call. Such entries were picked first, then a sample of the others. Calls follow the shape of the dose curve; as a rule, active = well fitted inhibition curve with a large enough effect; inconclusive = small, poorly fitted or top-dose-only effect, or another doubt; inactive = no such curve, though single readings can be large or run the other way. Potencies of inconclusive entries are left out as doubtful fits.
Potency is read from the fitted curve at half-maximal effect; tags tell the direction and shape of the fitted curve.

Test: Primary qHTS for delayed death inhibitors of the malarial parasite plastid, 48 hour incubation
Details: P. falciparum luciferase growth in erythrocytes; series mostly up to 28.7 µM
Method in brief: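 Erythrocytes infected with P. falciparum carrying an integrated firefly luciferase reporter (2% hematocrit, 0.1% parasitemia final) were exposed to compounds in RPMI 1640 with 0.5% Albumax at 37 C, 5% CO2. Growth inhibition was scored as reduced luminescence.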
In the case of `Cc1ccc(-n2c(O)c(C=Nc3ccc(S(N)(=O)=O)cc3)c(=O)[nH]c2=O)cc1`, the Potency is reported as inconclusive [inhibitor, full curve, poor fit]. For `O=[N+]([O-])c1ccccc1OCC(O)CN1CCN(CC(O)COc2ccccc2[N+](=O)[O-])CC1` (configuration not stated), the Potency was inconclusive [inhibitor, single point]. With `Cc1ccc(C(=O)NC(NC(=S)Nc2ccc(S(N)(=O)=O)cc2)C(Cl)(Cl)Cl)cc1` (configuration not stated) the Potency was “inactive”. With `Cc1ccc(C)c(Cn2nnc3c(=O)[nH]c(C4CCCN(C(=O)C5CCC5)C4)nc32)c1` (configuration not stated) the Potency was inconclusive [inhibitor, partial curve, poor fit]. With `CCOC(=O)C1CCN(c2nc3ccccc3nc2C(C#N)C(=O)OC(C)COC)CC1` (configuration not stated) the Potency was active: 8.28 µM. With `O=C(c1ccc([N+](=O)[O-])o1)N1CCN(c2nc3ccc(F)cc3s2)CC1` the Potency was active: 2.33 µM. In the case of `Cc1ccc(NC(=S)NNC(=S)Nc2cccc(C(F)(F)F)c2)cc1`, the Potency is reported as inconclusive [inhibitor, single point]. For `CCN(CC)c1cc(C)c2cc(NC(=O)c3ccc(Br)o3)ccc2n1`, the Potency was active: 11.7 µM. In the case of `COc1ccc(NC(=O)Cc2ccsc2)cc1S(=O)(=O)N1CCCCC1`, the Potency is reported as inconclusive [inhibitor, single point]. With `COc1cccc(N2CCN(c3c4c(nc5ncnn35)CCC4)CC2)c1` the Potency was inconclusive [inhibitor, single point]. With `COC(=O)c1c(NC(=O)CN2CCC3(O)CCCCC3C2c2cc(OC)ccc2OC)sc(C)c1C` (configuration not stated) the Potency was inconclusive [inhibitor, partial curve, poor fit]. For `CC(C)(C)c1ccccc1OCCCCCNCCO`, the Potency was active: 4.15 µM. For `CC(C)(C)c1cn(-c2ccc(F)cc2)c(=S)[nH]1`, the Potency was inconclusive [inhibitor, partial curve]. In the case of `Cc1cc(-c2nnc(SCC(=O)Nc3c(C)cccc3C)n2N)n[nH]1`, the Potency is reported as “inactive”. In the case of `Oc1ccc(Br)cc1/C=N/Nc1ccccn1`, the Potency is reported as active: 1.47 µM. With `Cc1cc(=O)oc2c(C)c(OC(C)C(=O)NCC(O)c3ccccc3)ccc12` (configuration not stated) the Potency was inconclusive [inhibitor, full curve, poor fit]. For `O=C(c1cc2ccccc2o1)N1CCCCCC1`, the Potency was “inactive”. With `COC(=O)c1ccc(CSc2nc3ccccc3c(=O)n2-c2cccc(OC)c2)o1` the Potency was active: 13.1 µM. In the case of `O=C(NCc1ccc2c(c1)OCO2)C1CCCN(S(=O)(=O)c2cccc3cccnc23)C1` (configuration not stated), the Potency is reported as inconclusive [inhibitor, partial curve]. With `c1ccc(Nc2nc(Nc3ccccc3)nc(N3CCNCC3)n2)cc1` the Potency was inconclusive [inhibitor, single point]. With `CCC(C)c1ccc(C(C)NC(=S)NCc2ccc(F)cc2)cc1` (configuration not stated) the Potency was inconclusive [inhibitor, single point]. In the case of `CCOc1cc(C(=O)Nc2ccccc2N2CCOCC2)ccc1OCC(=O)N1CCCCC1`, the Potency is reported as inconclusive [inhibitor, partial curve]. In the case of `COc1ccc(-c2noc(CN3CCCCC3c3nccn3C)n2)cc1` (configuration not stated), the Potency is reported as inconclusive [inhibitor, single point]. With `CC(=O)N1c2ccc(Cl)cc2C2C=CCC2C1c1cccc2ccccc12` (configuration not stated) the Potency was active: 13.1 µM. With `O=C(N/N=C/c1ccco1)c1cccc(N2CCCC2=O)c1` the Potency was “inactive”. For `O=C(CCNC(=O)c1ccccc1)OCC(=O)c1ccccc1`, the Potency was “inactive”. With `O=C(O)Cc1ccc2sc(-c3ccccc3)nc2c1` the Potency was “inactive”. For `COc1cc(C2=Nc3ccc(Br)cc3C(c3ccccc3)N2CC(=O)NN)cc(OC)c1OC` (configuration not stated), the Potency was active: 8.28 µM. In the case of `CN(CC(=O)NCc1ccco1)S(=O)(=O)c1ccc2c(c1)c(=O)n(C)c(=O)n2C`, the Potency is reported as “inactive”. In the case of `CCOP(=O)(NC12CC3CC(CC(C3)C1)C2)NC12CC3CC(CC(C3)C1)C2`, the Potency is reported as active: 3.7 µM. For `CN(C(=O)c1ccc(S(=O)(=O)c2cccc(Cl)c2)c([N+](=O)[O-])c1)C1CCCCC1`, the Potency was “inactive”. With `Cc1ccc2cccc(OCCOCCOc3ccccc3Br)c2n1` the Potency was “inactive”. For `CCN1CCN(C(=O)CCc2ccc(S(=O)(=O)NCCc3ccccc3)cc2)CC1`, the Potency was inconclusive [inhibitor, partial curve, poor fit]. For `CCOC(=O)CSc1ccc(C(=O)N2CCC3(CC2)OCCO3)cc1[N+](=O)[O-]`, the Potency was inconclusive [inhibitor, partial curve, poor fit]. For `CCOC(=O)N1CCC(N2CCN(S(=O)(=O)c3ccc(Cl)cc3)CC2)CC1`, the Potency was inconclusive [inhibitor, partial curve, poor fit]. In the case of `CCc1nc(N2CCN(C(=O)c3ccco3)CC2)c(C#N)c2c1COC(C)(C)C2`, the Potency is reported as active: 10.4 µM. In the case of `Oc1ccc2ccccc2c1C=NC1CCCCC1`, the Potency is reported as inconclusive [inhibitor, partial curve, poor fit]. For `Cc1cccc(Nc2nc(NCc3ccco3)c3ccccc3n2)c1`, the Potency was active: 0.657 µM. With `Cc1csc(NC(=O)c2cccc(S(=O)(=O)N3CCCCC3)c2)n1` the Potency was inconclusive [inhibitor, single point]. In the case of `O=C(/C=C/c1ccc(F)cc1)NC(=S)NNC(=O)c1cnccn1`, the Potency is reported as active: 3.29 µM. In the case of `Cc1ccc(OCC(=O)Nc2ccc(N3CCN(C(=O)c4ccco4)CC3)cc2)cc1C`, the Potency is reported as “inactive”. In the case of `COc1cc(C(=S)N2CCCC2)ccc1OS(=O)(=O)c1ccc(NC(C)=O)cc1`, the Potency is reported as active: 2.08 µM. With `CN(C)S(=O)(=O)c1cccc(NC(=S)Nc2cccc3cnccc23)c1` the Potency was active: 6.57 µM. For `CCOc1ccccc1N(CC(=O)Nc1c(C)n(C)n(-c2ccccc2)c1=O)S(=O)(=O)c1ccccc1`, the Potency was inconclusive [inhibitor, single point]. In the case of `COc1ccccc1OCCNC(=O)CC(NC(C)=O)c1ccccc1` (configuration not stated), the Potency is reported as inconclusive [inhibitor, single point]. In the case of `COc1ccc2nc(NNC(=O)C3COc4ccccc4O3)sc2c1` (configuration not stated), the Potency is reported as “inactive”. In the case of `CC(=O)c1c(C)[nH]c(C(=O)COC(=O)c2c(C)noc2C)c1C`, the Potency is reported as “inactive”. In the case of `O=C(CSc1ccccn1)Nc1nncs1`, the Potency is reported as “inactive”. With `Cc1nc(-c2ccccc2)sc1-c1nc(-c2ccncc2)ncc1S(=O)(=O)c1ccccc1` the Potency was inconclusive [inhibitor, full curve, poor fit]. In the case of `COc1ccc(S(=O)(=O)NCC(c2ccc3c(c2)OCO3)N2CCN(c3ccccc3)CC2)cc1` (configuration not stated), the Potency is reported as inconclusive [inhibitor, partial curve, poor fit]. With `O=C(C1CCN(S(=O)(=O)c2c(Cl)cccc2Cl)CC1)N1CCCCCCC1` the Potency was inconclusive [inhibitor, single point]. For `Cc1csc(NC(=O)CCNC(=O)c2ccccc2Cl)n1`, the Potency was “inactive”. For `COc1ccc(Br)cc1CN1CCN(C(=O)c2ccco2)CC1`, the Potency was inconclusive [inhibitor, single point]. With `Cc1cccc(N2C(=O)/C(=C/c3ccc(CN(CCC#N)S(C)(=O)=O)o3)C(=O)NC2=S)c1` the Potency was “inactive”. In the case of `CN(C)C(=O)c1ccc2c(c1)C1C3CCC(C3)C1C(c1ccccc1)N2` (configuration not stated), the Potency is reported as inconclusive [inhibitor, single point]. With `Cc1cccc(-n2c(=O)[nH]c3c(C(N)=O)nc(-c4ccccc4Cl)nc32)c1` the Potency was inconclusive [inhibitor, single point]. With `Cc1cc(F)c(F)c(C(=O)N2CCN(C)CC2)c1Cl` the Potency was inconclusive [inhibitor, single point]. For `Cc1csc(NC(=O)c2ccc(COc3ccccc3)o2)n1`, the Potency was “inactive”. With `COc1ccccc1N1CCN(c2nc3ccccc3nc2C(C#N)C(=O)OC(C)C)CC1` (configuration not stated) the Potency was active: 1.85 µM. With `Fc1ccccc1CNC(=S)NC1CCCCC1` the Potency was “inactive”. For `O=C(c1ccc(Cl)cc1)N1CCCC(c2ccccc2)=N1`, the Potency was inconclusive [inhibitor, full curve, poor fit]. With `CC(=O)Nc1ccc(-c2ccnc(-c3ccc(NC(C)=O)cc3)n2)cc1` the Potency was “inactive”. For `c1ccc2c(c1)CCN2CCN1CCc2ccccc21`, the Potency was inconclusive [inhibitor, single point]. With `O=C(/C=C/c1ccc(F)cc1)NCCCN1CCN(CCCNC(=O)/C=C/c2ccc(F)cc2)CC1` the Potency was inconclusive [inhibitor, partial curve, poor fit]. For `OC(c1ccccc1)c1cccnc1` (configuration not stated), the Potency was “inactive”. In the case of `Cc1ccccc1C([O-])=Nc1ccc[n+](-c2nc3ccccc3nc2NS(=O)(=O)c2ccccc2)c1`, the Potency is reported as inconclusive [inhibitor, partial curve, poor fit]. For `O=C(C[n+]1ccc2ccccc2c1)c1ccccc1`, the Potency was inconclusive [inhibitor, single point]. With `O=C(c1ccccc1)c1c[nH]c(C(=O)NNc2ccccc2)c1` the Potency was “inactive”. With `COc1cccc(N2C(=O)CC(N3CCN(S(=O)(=O)c4ccccc4)CC3)C2=O)c1` (configuration not stated) the Potency was inconclusive [inhibitor, single point]. For `CCN(Cc1ccncc1)C(=O)c1ccccc1NS(=O)(=O)c1ccc(Br)cc1`, the Potency was inconclusive [inhibitor, single point]. In the case of `Cc1c(N)cc(N)cc1C(=O)O`, the Potency is reported as inconclusive [inhibitor, single point]. In the case of `Cc1nc2ccccn2c1C(=O)/C=C/c1cccc([N+](=O)[O-])c1`, the Potency is reported as inconclusive [inhibitor, full curve].
